Results reported in the supplement of paper PMC4166925.
± gives the standard deviation of the averaged measurements. Over roughly 33,000 sequences, “E-score (dimensionless, -0.5 to 0.5)” has its median near -0.049; the highest 2% begin near 0.37. The list shows a part of the results.

Tested on: T1, PmTbr T-box DNA-binding domain (GST fusion)
T1 sequence: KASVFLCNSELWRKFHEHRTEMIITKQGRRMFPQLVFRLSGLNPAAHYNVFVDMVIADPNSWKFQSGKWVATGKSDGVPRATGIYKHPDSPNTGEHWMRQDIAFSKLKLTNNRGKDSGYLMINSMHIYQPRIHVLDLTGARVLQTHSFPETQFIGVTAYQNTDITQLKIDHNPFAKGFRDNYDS
Assay: PBM E-score of 8-mer (E-score (dimensionless, -0.5 to 0.5)); Tbr is Tbrain of the sea star Patiria miniata (Pm) or the sea urchin Strongylocentrotus purpuratus (Sp); higher = stronger binding preference; most listed sequences are background and not binding sites
Details: the construct has about 5 more residues each side
In short: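 Each ungapped 8-mer received an enrichment E-score from the Universal PBM Analysis Suite, averaged over duplicate arrays. The proteins were Tbr T-box DNA-binding domains, covering the whole T-box plus about five flanking residues, fused to GST and expressed in BL21 E. coli at 20 °C before glutathione affinity purification. Universal Agilent oligonucleotide arrays were made double-stranded by primer extension and incubated with 200 nM protein in PBS (pH 7.5). The arrays were then scanned and quantified, and every 8-mer was scored from probe intensities.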

Compared with CCCATAGC, CTATATTA is higher in “PBM E-score of 8-mer” value: -0.0976 ± 0.053 for the first, 0.0547 ± 0.023 for the second.

Compared with ATTGTAGG, CCCTGGAG is lower in “PBM E-score of 8-mer” value: -0.0174 ± 0.026 for the first, -0.106 ± 0.024 for the second.

Going from AGGGGACA to CCAAATTC, the “PBM E-score of 8-mer” value rises from -0.0658 ± 0.047 to 0.137 ± 0.047.

First: ATACGTAC
Second: ATTACAGA
The “PBM E-score of 8-mer” value of the first is higher: -0.0364 ± 0.057 for the first, -0.15 ± 0.012 for the second.

First: AAGAAGTG
Second: CGTTCATC
The “PBM E-score of 8-mer” value of the first is higher: 0.216 ± 0.013 for the first, -0.188 ± 0.0052 for the second.

First: CATGTCTC
Second: CAAGGTAC
The “PBM E-score of 8-mer” value of the first is lower: -0.133 ± 0.016 for the first, -0.0147 ± 0.012 for the second.

CGTCTGAG and CAACGTAA are within error of each other in “PBM E-score of 8-mer” value: -0.166 ± 0.065 for the first, -0.163 ± 0.13 for the second.

ATAATTGC and CGATAAGA are within error of each other in “PBM E-score of 8-mer” value: 0.014 ± 0.077 for the first, 0.0841 ± 0.032 for the second.

First: AGAGTTGG
Second: GGTGGCAA
The “PBM E-score of 8-mer” value of the first is lower: -0.00498 ± 0.0058 for the first, 0.3882 ± 0.0017 for the second.

First: CCCTGAGC
Second: ACTTCACC
The “PBM E-score of 8-mer” value of the first is lower: -0.0772 ± 0.042 for the first, 0.0665 ± 0.03 for the second.

AGCTTATA and CATTGGAA are within error of each other in “PBM E-score of 8-mer” value: -0.126 ± 0.055 for the first, -0.0527 ± 0.049 for the second.

Compared with ACCATCAG, CAAAGTAG is lower in “PBM E-score of 8-mer” value: 0.202 ± 0.024 for the first, -0.0267 ± 0.012 for the second.

AATCTCCA and CGGGGGAC are within error of each other in “PBM E-score of 8-mer” value: -0.108 ± 0.07 for the first, -0.175 ± 0.086 for the second.

Compared with ACTATAGG, GACTTCTA is higher in “PBM E-score of 8-mer” value: -0.126 ± 0.044 for the first, -0.0602 ± 0.012 for the second.

Going from AGGCAGAC to ACTCGACT, the “PBM E-score of 8-mer” value rises from -0.173 ± 0.0082 to -0.0594 ± 0.015.

Going from CCTAAGTC to AGTGAAAT, the “PBM E-score of 8-mer” value rises from -0.0839 ± 0.0091 to 0.241 ± 0.05.

Going from CCTGAACA to GAGCCCAC, the “PBM E-score of 8-mer” value falls from 0.0846 ± 0.038 to -0.0709 ± 0.04.

Compared with ACGGTGGA, CTGGCCTC is higher in “PBM E-score of 8-mer” value: -0.21 ± 0.0022 for the first, -0.14 ± 0.041 for the second.

Compared with CCTCTAAG, GGGCGTAA is higher in “PBM E-score of 8-mer” value: 0.0268 ± 0.032 for the first, 0.118 ± 0.012 for the second.

AACTTCAG and AGGAGTTC are within error of each other in “PBM E-score of 8-mer” value: -0.177 ± 0.012 for the first, -0.136 ± 0.1 for the second.

Going from GTGATTGA to CGCAAACC, the “PBM E-score of 8-mer” value falls from 0.125 ± 0.042 to -0.0122 ± 0.0044.

GGTTGAAA and AAGTGTAC are within error of each other in “PBM E-score of 8-mer” value: -0.0312 ± 0.071 for the first, 0.0291 ± 0.019 for the second.

First: AAGGAAGA
Second: ACCTGCTG
The “PBM E-score of 8-mer” value of the first is lower: -0.262 ± 0.1 for the first, 0.1509 ± 0.0011 for the second.

First: AAACCCGA
Second: AGGCATGC
The “PBM E-score of 8-mer” value of the first is higher: -0.02 ± 0.015 for the first, -0.327 ± 0.025 for the second.

First: CCCATGTA
Second: CGCGAGAC
The “PBM E-score of 8-mer” value of the first is lower: -0.0443 ± 0.12 for the first, 0.329 ± 0.02 for the second.

Compared with GGCCTCTA, GAGATAGA is higher in “PBM E-score of 8-mer” value: -0.206 ± 0.058 for the first, -0.103 ± 0.0062 for the second.

TCCATGGA and TATGCCCA are within error of each other in “PBM E-score of 8-mer” value: -0.249 ± 0.024 for the first, -0.223 ± 0.067 for the second.

Compared with AAATGCAC, ATCAAGTG is higher in “PBM E-score of 8-mer” value: -0.0607 ± 0.12 for the first, 0.117 ± 0.021 for the second.

First: TAGTGTAA
Second: CCATATTA
The “PBM E-score of 8-mer” value of the first is higher: 0.185 ± 0.072 for the first, -0.18 ± 0.026 for the second.

First: ACCCTGAA
Second: AGCAACGA
The “PBM E-score of 8-mer” value of the first is higher: 0.1933 ± 0.0017 for the first, -0.0846 ± 0.025 for the second.

Compared with ATTCATGC, GTTCGCTA is higher in “PBM E-score of 8-mer” value: -0.149 ± 0.024 for the first, 0.0963 ± 0.024 for the second.

GGGGCACA and GGCAAGAA are within error of each other in “PBM E-score of 8-mer” value: -0.137 ± 0.089 for the first, -0.135 ± 0.068 for the second.

GAGCAGGA and GATACGCA are within error of each other in “PBM E-score of 8-mer” value: -0.0811 ± 0.049 for the first, -0.0323 ± 0.072 for the second.

Compared with GTTCTTTA, TAAGAACA is higher in “PBM E-score of 8-mer” value: -0.22 ± 0.059 for the first, 0.045 ± 0.043 for the second.

Compared with ACACAGTG, GATCAACC is lower in “PBM E-score of 8-mer” value: 0.229 ± 0.005 for the first, -0.118 ± 0.014 for the second.

Compared with ATTGAGGA, AAGGGTGG is higher in “PBM E-score of 8-mer” value: -0.293 ± 0.072 for the first, 0.1889 ± 0.001 for the second.

AGCCACCA and ATATATAG are within error of each other in “PBM E-score of 8-mer” value: -0.0526 ± 0.037 for the first, -0.0935 ± 0.0052 for the second.

Compared with TCTAATAA, ACGTATGC is higher in “PBM E-score of 8-mer” value: -0.106 ± 0.019 for the first, -0.0237 ± 0.041 for the second.

CTGGGATA and AATGATGA are within error of each other in “PBM E-score of 8-mer” value: -0.184 ± 0.04 for the first, -0.167 ± 0.027 for the second.

TCGTTTAA and AGAATTTA are within error of each other in “PBM E-score of 8-mer” value: -0.116 ± 0.039 for the first, -0.153 ± 0.058 for the second.

Compared with TCGCGACA, AAGCATGA is lower in “PBM E-score of 8-mer” value: 0.331 ± 0.0039 for the first, 0.00125 ± 0.081 for the second.

CCAGGGGA and CTTACCGA are within error of each other in “PBM E-score of 8-mer” value: -0.207 ± 0.064 for the first, -0.202 ± 0.02 for the second.

GGCGATAC and TCGCAAAA are within error of each other in “PBM E-score of 8-mer” value: 0.115 ± 0.047 for the first, 0.152 ± 0.048 for the second.
